Test results published in PubChem BioAssay AID1671194 (National Center for Advancing Translational Sciences (NCATS), 2021).
The campaign covered roughly 140,000 compounds. About 240 (0.17%) were called active. The inconclusive results got no clear call from the source; some entries with a clear call stand among them for comparison. Calls come from the whole dose curve; as a rule, active = well fitted inhibition curve with a large enough effect; inconclusive = small, poorly fitted or top-dose-only effect; inactive = no such curve, though single readings can be large or run the other way. Where the call is inconclusive, the potency comes from a doubtful curve fit.

assay: Primary qHTS assay for inhibitors of alpha-synuclein gene (SNCA) expression; details: HEK-293 SNCA-luciferase knock-in, luminescence, 24 h; series mostly up to 57.2 µM; note: nearly all actives have a fitted effect of over 45% in size
Potency is the fitted concentration of half-maximal effect; tags give direction and shape of the fitted curve.

Potency, inconclusive:
COc1cccc(-c2ccc(C(=O)N3CCC(NC(C)=O)CC3)cc2)c1 3.98 µM [inhibitor, partial curve, poor fit]
CCOc1ccc(NC(=O)Cn2c(=O)oc3cc(S(=O)(=O)N4CCCCCC4)ccc32)cc1 3.55 µM [inhibitor, single point]
O=C1c2[nH]nc(-c3ccc(Br)cc3)c2C(c2cccc(O)c2)N1c1ccc(Cl)cc1 (stereo not given) 20 µM [inhibitor, partial curve, poor fit]
O=C(C1CCCC1)N1Cc2ccccc2CC2(CCCCN2CC2CCNCC2)C1 (stereo not given) 39.8 µM [inhibitor, single point]
COc1ccc(CCNC(=O)c2ccc3c(c2)N(Cc2cccc(Cl)c2)C(=O)CS3)cc1OC 20 µM [inhibitor, partial curve, poor fit]
COC(=O)[C@@H]1Cc2c([nH]c3ccccc23)[C@H]2C[C@@H](NCc3ccccc3)C[C@@H](c3ccccc3F)N21 11.2 µM [inhibitor, partial curve, poor fit]
CCN(CC)c1ccc(C(=O)NCc2nnc3cc(-c4nc(C5CC5)no4)ccn23)cc1 39.8 µM [inhibitor, single point]
Cc1cccc(OCCc2noc(C3CCN(C(=O)c4n[nH]c(=O)c5ccccc45)C3)n2)c1 (stereo not given) 39.8 µM [inhibitor, single point]
C[C@H]1[C@H](O)O[C@@H]2O[C@@]3(C)CC[C@@H]4[C@H](C)CC[C@@H]1[C@@]24OO3 1.36 µM [inhibitor, full curve]
Cc1cn(C)c(CC(=O)NCc2ccccc2Cl)c1C(=O)O 39.8 µM [inhibitor, single point]
CCC(C)OC(=O)/C(C#N)=C\c1ccc(-c2ccccc2Cl)o1 (stereo not given) 2.51 µM [inhibitor, partial curve, poor fit]
COc1ccccc1CN1CC[C@H](c2nc3ccc(C(F)(F)F)cc3[nH]2)C1 28.2 µM [inhibitor, single point]
O=C(c1noc(-c2ccc(F)cc2)n1)N1CCN(c2ccccc2F)CC1 39.8 µM [inhibitor, single point]
CCCC1=Nc2cc(C(=O)NCCc3ccc(OC)cc3OC)ccc2Sc2ccccc21 0.631 µM [inhibitor, full curve]
CCOc1ccc(N(CC(=O)NCc2ccc(C)cc2)S(=O)(=O)c2c(C)noc2C)cc1 39.8 µM [inhibitor, single point]
O=C1c2[nH]nc(-c3ccccc3O)c2C(c2cccc(Cl)c2)N1Cc1cccnc1 (stereo not given) 39.8 µM [inhibitor, single point]
COc1ccc(OC)c(NS(=O)(=O)c2ccc3[nH]c4c(c3c2)CCCCC4)c1 17.8 µM [inhibitor, single point]
O=C(c1cccc(Cl)c1)N1CCC2(CC1)CC(=O)N(c1ccccc1)c1ccccc1O2 28.2 µM [inhibitor, partial curve, poor fit]
CCCCN1CC(c2nc3ccccc3n2CCCCOc2ccc(C)c(C)c2)CC1=O (stereo not given) 15.8 µM [inhibitor, partial curve, poor fit]
Cc1cccc2ncc(C(=O)N3CCC4(CCNC(=O)CC4)CC3)c(=O)n12 8.91 µM [inhibitor, partial curve, poor fit]
O=C(NCCc1ccc(Cl)cc1)c1nc2sccn2c1-c1ccc(C(F)(F)F)cc1 39.8 µM [inhibitor, single point]
NCCCC(=O)N1CCC2(CC1)CN([S+](=O)([O-])c1ccccc1)CCO2 25.1 µM [inhibitor, partial curve, poor fit]
CCOC(=O)c1cc(-c2ccc(C)cc2)n(CCC(=O)Nc2ccc(C(C)C)cc2)c1C 14.1 µM [inhibitor, single point]
Cc1cc(F)ccc1NS(=O)(=O)c1c(C)nc2scc(C)n2c1=O 22.4 µM [inhibitor, partial curve, poor fit]

Potency, inactive:
CN1CCC2(CCCN(Cc3cc4n(n3)CCCNC4)C2)C1 (stereo not given)
COCC(=O)N1CCCC1C(=O)N1CCC(N2Cc3cccn3C2=O)CC1 (stereo not given)
Cn1ncc(N2CCC(NC(=O)c3ccc4c(c3)OCO4)CC2)cc1=O
O=C(CC1NCCNC1=O)OC1CCCCC1 (stereo not given)
O=C([C@@H]1C[C@H](Oc2ccccc2)CN1C(=O)NC1CCCCC1)N1CCOCC1
COc1cc(C)ccc1OCCn1c(-c2ccc(Cl)cc2)nc2ccccc2c1=O
CCOCCCNC(=O)N1CC2CN(C(C)C)CC(C1)O2
Cc1ccc(N)cc1O
COc1cccc(CN2CCC3(CC2)NCCc2c3[nH]c3ccccc23)c1
CN(C)C(=O)c1ccc(-c2cc3c(cn2)CN(CCc2ccccc2)CCN3)cc1
Cc1ccc(C(=O)NC2CCCN(c3cc(-c4ccc(F)cc4)[nH]n3)C2)cc1 (stereo not given)
Cc1csc(Nc2ccc3c(n2)CN(Cc2ccc(F)cc2)C(=O)CO3)n1
COc1ccc(-c2cc(N3CCCC(NC(=O)c4ccccn4)C3)n[nH]2)cc1 (stereo not given)
N#Cc1ccccc1CN1CCN(c2nccc(CCC(F)(F)F)n2)CC1
CN(Cc1cccc(F)c1)Cc1cccc(C(F)(F)F)c1
O=C(c1n[nH]c2ccccc12)N1CC(Oc2ccccc2-c2nc(-c3ccccc3)no2)C1
O=C(NCc1ccc(F)cc1)c1nc2sccn2c1-c1ccc(F)cc1
O=C1OC[C@@H]2CCN(Cc3ccc(F)cc3)Cc3ccc(F)cc3N12
COc1ccccc1CC(=O)NCc1nnc2ccc(-c3ccc(C)c(C)c3)nn12
O=C(Cn1ccn2nc(-c3ccccc3)c(CO)c2c1=O)Nc1ccc(F)c(Cl)c1
Cn1ccc2c(C(=O)N[C@H](c3cccs3)C3CC(O)C3)cccc21 (stereo not given in full)
